Reference: PubChem BioAssay AID488969 (Vanderbilt High Throughput Screening Facility, 2010)
Over roughly 110,000 compounds, “z-score” has its median near -0.1; the highest 2% begin near 2. The list shows a part of the results. The source made the active and inactive calls.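 How the source made its calls: active means z-score in the third read window above 3 or below -3; inactive means the rest.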

target: Metabotropic glutamate receptor 8 (Rattus norvegicus) (UniProt P70579); assay: mGluR8 Gi/Go-coupled signaling modulation – cell-based, rat, thallium flux, HTS, primary screen (AID 488969); settings: HEK293 rat mGluR8, GIRK (G protein-gated inwardly rectifying potassium channel) thallium flux, FluoZin2; at 10 µM; stronger effect = higher value; submaximal glutamate (EC20) added with thallium
UniProt P70579, sequence (P70579 whole entry, looked up): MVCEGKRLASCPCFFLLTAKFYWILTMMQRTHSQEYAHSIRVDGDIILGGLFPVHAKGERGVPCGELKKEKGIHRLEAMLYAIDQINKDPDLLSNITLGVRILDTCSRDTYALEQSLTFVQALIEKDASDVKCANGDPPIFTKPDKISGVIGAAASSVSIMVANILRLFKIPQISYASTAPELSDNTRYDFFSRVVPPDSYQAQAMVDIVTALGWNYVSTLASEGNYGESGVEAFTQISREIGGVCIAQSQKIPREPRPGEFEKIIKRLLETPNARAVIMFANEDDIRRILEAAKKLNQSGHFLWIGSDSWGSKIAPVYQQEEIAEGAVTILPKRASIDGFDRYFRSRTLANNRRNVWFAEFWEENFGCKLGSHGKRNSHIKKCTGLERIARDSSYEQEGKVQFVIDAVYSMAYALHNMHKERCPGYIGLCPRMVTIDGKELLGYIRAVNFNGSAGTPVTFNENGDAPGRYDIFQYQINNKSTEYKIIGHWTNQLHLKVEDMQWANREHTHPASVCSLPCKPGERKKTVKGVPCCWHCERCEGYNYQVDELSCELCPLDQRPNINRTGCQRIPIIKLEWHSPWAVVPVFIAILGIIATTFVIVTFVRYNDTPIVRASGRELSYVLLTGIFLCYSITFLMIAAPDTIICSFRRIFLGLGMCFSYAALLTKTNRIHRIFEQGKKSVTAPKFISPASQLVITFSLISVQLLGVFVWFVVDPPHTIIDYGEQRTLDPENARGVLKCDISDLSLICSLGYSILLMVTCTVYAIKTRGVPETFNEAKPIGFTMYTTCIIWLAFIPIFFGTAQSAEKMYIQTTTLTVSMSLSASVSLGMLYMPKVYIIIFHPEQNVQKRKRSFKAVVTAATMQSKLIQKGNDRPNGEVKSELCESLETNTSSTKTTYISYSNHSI

| SMILES | z-score |
| --- | --- |
| O=S(=O)(N1CCCCC1)N1CCN(S(=O)(=O)N2CCCCC2)CC1 | 0.219 |
| CCCC1CCc2c(sc(NC(=O)OCC)c2C#N)C1 (centres undefined) | 1.14 |
| CCCCc1nc2ccccc2c(NC(=O)CN2CCCC2)c1CCC | -1.16 |
| CCOC(=O)c1[nH]c2ccc(Br)cc2c1NC(=O)CCN1CCCCC1 | -0.198 |
| O=C(NC(=S)NCCN1CCOCC1)c1ccc(Cl)cc1Cl | 0.241 |
| CCOC(=O)c1cccc(NC(=O)CSc2nc3ccccc3c(=O)n2CC)c1 | -0.11 |
| Cc1ccc2[nH]c3c(c2c1)CN(C(=O)CN1CC(C)OC(C)C1)CC3 (centres undefined) | 0.124 |
| CCCCC(CC)CNC(=O)CN(C)S(=O)(=O)c1cccc2nsnc12 (centres undefined) | -0.404 |
| COc1ccc(S(=O)(=O)N2CCC(c3cc(-c4cccc5ccccc45)n[nH]3)CC2)cc1 | 2.15 |
| O=C(/C=C/c1ccc(O)cc1)c1ccc(NC2=C(N3CCCCC3)C(=O)c3ccccc3C2=O)cc1 | -0.195 |
| CN(CC(=O)NC1CCCCCC1)S(=O)(=O)c1ccccc1 | -0.0452 |
| COc1ccc2cc3cc(C(=O)NC(C)C)oc3nc2c1 | 0.629 |
| Cc1c(Cl)cccc1NC(=S)NCc1ccc2c(c1)OCO2 | 0.0623 |
| CCOc1cc(S(=O)(=O)Nc2ccccn2)ccc1F | -0.0329 |
| COC(=O)Nc1nnc(/C=C/c2ccc(OC)cc2)s1 | -0.162 |
| O=C(CSc1nnc(-c2ccncc2)n1-c1ccc(Cl)cc1)N1CCOCC1 | 0.068 |
| COc1ccc(-n2c(COc3cccc4ccccc34)nnc2SCC(=O)NCc2ccco2)cc1 | 0.527 |
| COC(=O)Cc1[nH]nc2c1C(c1c[nH]c3ccccc13)C(C#N)=C(N)O2 (centres undefined) | -0.415 |
| CCCCn1nc2cc(C(=O)NCc3ccc(OC(F)(F)F)cc3)ccc2c1OC | -0.209 |
| CC(C)n1c(N2CCN(C(=O)Nc3ccccc3)CC2)nc2ccccc21 | -0.339 |
| COc1ccc(-c2cn3ccsc3n2)cc1 | 0.107 |
| Cc1ccc(S(=O)(=O)N2CCCCC2)cc1NC(=O)COC(=O)Cc1cccc2ccccc12 | -0.245 |

| SMILES | z-score |
| --- | --- |
| COc1cccc(C(c2nnnn2CCc2ccccc2)N2CCN(c3ccccc3)CC2)c1OC (centres undefined) | -0.689 |
| COC(=O)c1nnc(-c2ccccc2)nc1OC | -0.268 |
| O=C(Nc1nc(-c2ccc(F)cc2)cs1)C1CCCO1 (centres undefined) | -0.336 |
| CCOC(=O)c1ccc(CN(Cc2ccccc2)S(=O)(=O)c2cccc([N+](=O)[O-])c2)cc1 | -0.104 |
| O=C(CCn1cccc1)NCc1ccccc1 | 0.665 |
| CC(=NC1CCCC1)c1c(C)[nH]n(-c2nc3ccccc3s2)c1=O | 0.141 |
| CCN1CCc2c(C#N)c(N3CCCCC3)nc(NCc3ccccc3)c2C1 | -0.129 |
| c1ccc(CC2CCN(C3=Nc4cccc5cccc3c45)CC2)cc1 | 0.122 |
| CCCCCC(C(=O)O)C(C)CC(=O)NC1CCCCC1 (centres undefined) | -0.113 |
| CC(C)(C)NC(=O)CN(Cc1cccs1)C(=O)CCC(=O)Nc1nccs1 | -0.171 |
| COc1ccc(/C=N/NC(=O)CC(=O)NCCc2ccccc2)cc1OC | -0.114 |
| Cc1cccc(C(=O)N/N=C/c2ccc(OC3CSC3)cc2)c1 | 0.112 |
| N#C/C(=C\Nc1ccccc1SC(F)(F)F)c1nc(-c2ccccc2)cs1 | -0.126 |
| CCOC(=O)C(C)CC(C)C(=O)N1CCOCCN(C(=O)C(C)CC(C)C(=O)OCC)CCOCC1 (centres undefined) | 0.0283 |
| CC(=O)N1CCN(C(=O)CCc2nc3ccccc3c(=O)[nH]2)CC1 | 0.872 |
| COC(=O)c1c(NC(=O)C2CCC2)sc(C(=O)N(C)C)c1C | -1.15 |
| CCOc1cc(C)nc(NCc2ccccc2)n1 | -0.154 |
| O=C(NCc1ccco1)C1CCN(c2nc3ccccc3n2Cc2ccc(F)cc2)CC1 | 0.0125 |
| COCCNC(C(=O)Nc1cc(Cl)cc(Cl)c1)c1ccccc1 (centres undefined) | -0.125 |
| N#CCN1C(=S)N=C(Nc2cccc(Cl)c2)C12CCCCC2 | 2.57 |
| CCc1ccc2c(CC(=O)Nc3nnc(C4CC4)s3)coc2c1 | 0.317 |
| COc1ccc(C(=O)Nc2nc(C)c3cc4c(cc3n2)OCO4)cc1 | 0.889 |

| SMILES | z-score |
| --- | --- |
| Cc1ccccc1-c1nnc(SCc2ccc(F)cc2)o1 | 0.444 |
| CCOC(=O)Cc1csc(NC(=O)c2c(-c3ccccc3)noc2C)n1 | -0.523 |
| COc1ccc(Nc2ncnc3c2cnn3Cc2ccccc2)cc1 | -1.73 |
| Cc1cc(C)n(C(=O)CCCCCCCC(=O)n2nc(C)cc2C)n1 | 0.167 |
| CCOC(=O)c1cnc(SCC(=O)Nc2ccc3c(c2)OCCO3)nc1N | 0.386 |
| CCOc1ccc2nc(NC(=O)CCn3cccc3)sc2c1 | -0.175 |
| CCn1ncc(Br)c1C(=O)Nc1cc(C)cc(C)c1 | -0.443 |
| CCN(CCNC(=O)C1CC(=O)N(CCc2ccccc2)C1)c1ccccc1 (centres undefined) | 0.837 |
| O=C(c1cccc(COCC(F)(F)C(F)F)c1)N1CCN(c2ccccc2)CC1 | -0.618 |
| Cc1ccc2oc(-c3ccccc3)nc2c1 | -0.29 |
| O=C(O)CCCNC(=O)c1cncc(O)c1 | -0.271 |
| CCOC(=O)C1=C(N)n2c(s/c(=C\c3cccnc3)c2=O)=C(C(=O)OC)C1c1cccnc1 (centres undefined) | -0.554 |
| O=C(CNC1CCCCCC1)Nc1ccccc1N1CCCCC1 | -0.23 |
| O=C(NC(=S)Nc1ccccc1N1CCOCC1)c1ccc([N+](=O)[O-])cc1 | 0.377 |
| CC(=O)c1cc(C)ccc1OC(=O)c1cccnc1 | 0.552 |
| Cc1cccc(OCCn2cc(/C=N/NC(=O)c3ccncc3)c3ccccc32)c1 | -1.37 |
| CN(C)CCSc1nc(-c2ccccc2)nc2c1COC(C)(C)C2 | -0.143 |
| Cc1c(NC(=O)c2noc(C(C)C)c2[N+](=O)[O-])c(=O)n(-c2ccccc2)n1C | 0.0552 |
| CCN1C(=O)c2c(C)nc3ccccc3c2C1=O | -0.152 |
| O=C(Nc1ncccn1)C1c2ccccc2Oc2ccccc21 | -1.61 |
| C=CCC(CC=C)(NC(=O)c1cccc(C)c1)c1ccccc1 | -0.499 |
| CCCCNC(=S)N(C)/N=C/c1ccc(OCc2ccc(C(=O)OC)cc2)c(OC)c1 | 0.00638 |

| SMILES | z-score |
| --- | --- |
| O=[N+]([O-])c1ccc(Nc2ccc3ccccc3c2)nc1 | 0.0504 |
| Cc1c(N2C(=O)/C(=C3/C(=O)N(C)c4ccccc43)SC2=S)c(=O)n(-c2ccccc2)n1C | -0.363 |
| CN1CCC(N2CCN(c3cccc(C(F)(F)F)c3)CC2)CC1 | 0.0253 |
| CC(C)(C)NC(=O)C(=O)NCc1ccncc1 | -0.067 |
| COc1cccc(/C=C(/C(=O)OCC(=O)NC2CCCCCCC2)c2ccccc2)c1 | -0.323 |
| Cc1cc(C)c(NC2=NS(=O)(=O)c3ccccc32)c(C)c1 | -0.485 |
| CCCC1CCC(C(=O)Nn2c(C)nc3ccccc3c2=O)CC1 (centres undefined) | -0.234 |
| Cc1ccccc1NC(=O)/C=C/c1ccc([N+](=O)[O-])s1 | 0.376 |
| CC(C)(C)NC(=O)CSc1nnc(-c2ccncc2)n1Cc1ccccc1 | -0.16 |
| Cc1cc2c(OCC(O)CNC(C)(C)C)cccc2[nH]1 (centres undefined) | 0.417 |
| CCOC(=O)N1CCN(C(=O)c2ccccc2NC(=O)c2ccc(OC)cc2)CC1 | 0.851 |
| COc1ccc(/C=N/n2c(-c3n[nH]c4c3CCC4)n[nH]c2=S)cc1OC | -0.569 |
| O=C(OCn1nnc2ccccc2c1=O)c1cc(-c2ccccc2Cl)nc2ccccc12 | 0.0512 |
| N#CC(C(=O)C12CC3CC(CC(C3)C1)C2)c1nc2ccccc2[nH]1 (centres undefined) | -0.609 |
| Cc1ccc(CNC(=O)Cc2ccc(-c3ccccc3)cc2)cc1 | 0.703 |
| O=C(COC(=O)Cc1ccccc1F)Nc1cc(S(=O)(=O)N2CCOCC2)ccc1N1CCCC1 | -0.136 |
| CC(C)N(Cc1nc(-c2ccccc2)no1)C(=O)CN1C(=O)c2ccccc2C1=O | -0.186 |
| CCn1nnnc1SCC(=O)Nc1sc(C)c(C)c1C#N | -0.175 |
| Nc1cc(Cl)ccc1Oc1ccc2ccccc2c1 | -0.263 |
| COC(=O)Cc1cnc(NC(=O)C2C3CCC(C3)C2C(=O)O)s1 (centres undefined) | -0.1 |
| Cc1ccccc1NC(=O)C1(NC(=O)c2cccc(N3C(=O)CSC3c3ccccc3)c2)CCCCC1 (centres undefined) | -0.0547 |
| O=C(NCCCN=C1NS(=O)(=O)c2ccccc21)c1ccncc1 | 0.0475 |

| SMILES | z-score |
| --- | --- |
| Cc1cccc(N2CCN(C(=O)Cn3c(=O)[nH]c4ccsc4c3=O)CC2C)c1 (centres undefined) | 1.5 |
| Fc1ccccc1OCCSc1nnnn1-c1ccccc1 | -0.0995 |
| CCOc1nc(SC(C(C)=O)C(=O)Nc2ccccc2)nc(N(C)C)n1 (centres undefined) | -0.49 |
| CCOC(=O)Cc1csc(NC(=S)NC(=O)c2ccccc2Br)n1 | active: 7.57 |
| CN(C1CCCCC1)S(=O)(=O)c1ccc2c(c1)c(=O)c(C(=O)N1CCc3ccccc3C1)cn2C | -1.33 |
| Cc1cc(C(=O)Cn2nnc3ccccc3c2=O)c(C)n1-c1c(C)n(C)n(-c2ccccc2)c1=O | -0.0483 |
| O=C(CNC(=O)c1ccco1)NCC(=O)OC(C(=O)c1ccccc1)c1ccc(Cl)cc1 (centres undefined) | -0.478 |
| O=C(CSc1nc(Cc2ccccc2)nc2ccccc12)c1ccc2c(c1)OCCO2 | 0.362 |
| CC(=O)N/C(=C/c1ccccc1)C(=O)N1CCCCC1 | -0.553 |
| Cc1ccc(NC(=O)CSc2nnc(-c3cccnc3)s2)cc1 | 0.0647 |
| Cc1cc(C(=O)NCC2CCCO2)n(-c2ccccc2)n1 (centres undefined) | -0.204 |
| COc1cc(C)nc(NC(=O)COc2ccc(Cl)cc2C)n1 | 0.561 |
| O=C(CSc1nc2ccccc2n1CCc1ccccc1)NC1CCS(=O)(=O)C1 (centres undefined) | 2.39 |
| CCOC(=O)c1cc(-c2ccccc2)sc1NC(=O)CSc1nncs1 | 0.159 |
| CC1CCN(S(=O)(=O)c2cn(C)c(=O)n(C)c2=O)CC1 | 0.249 |
| COc1ccc(O)c(C(=O)c2cnc3nc4ccccc4n3c2)c1 | 0.523 |
| CC(=O)N1CCc2cc(S(=O)(=O)NCCC3=CCCCC3)ccc21 | -0.284 |
| CCCC(=O)C1=C(O)C(C(=O)OC)C(C)(C)CC1=NC(C)C (centres undefined) | 0.0232 |
| CCOC(=O)C1CCN(C(=O)C2CCN(S(=O)(=O)c3c(C)noc3C)CC2)CC1 | -0.0645 |
| O=C1C2C3C=CC(c4ccccc4)(C2C(=O)N1c1cccc(Cl)c1)C1C(=O)N(c2cccc(Cl)c2)C(=O)C31 (centres undefined) | 0.0233 |
| CCC(=O)Nc1cccc(NC(=S)NC(=O)c2ccc(Cl)cc2Cl)c1 | 0.0528 |
